# Results: the supplement of paper PMC8728848
# The list shows a part of the results.
# B1: MSMEG3662-2a (Mycobacterium smegmatis), A0QYH7_MYCS2 (protein)
# chain: MGDTLTAGQKLERGGSLQSGNGAYTLTLQDDGNLVLYARDKAVWSTGTNGQDVVRAEVQTDGNFVLYTAEKPVWHTDTKGKKEVKLVLQDDRNLVLYAKDGPAWSSKTDTTEPPPPAPEPEKEAEVAPAAAEEAAPAPVAEPAPAEPAPAAPPPAPPAPRTYTVVSGDTLWAIAERFYGDGSKYQQIADASGIANPDLIHPGQVLTIP
# How the values were obtained:
# Experiment in all cases: glycan array binding signal (z-score within array); higher = stronger binding
# Details in all cases: glycan notation: IUPAC condensed, linker removed
# [1] = biological target: Fuc(a1-2)Gal(b1-4)[Fuc(a1-3)]GlcNAc
# Outline: (§1)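 The Consortium for Functional Glycomics database supplied 3228 glycan arrays, of which those lacking an available protein sequence were dropped. The binding signal, a within-array Z-score, was averaged across arrays of the same protein sequence and across linkers. Negative scores can be read as non-binding.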
# [2] = biological target: Fuc(a1-2)Gal(b1-4)[Fuc(a1-3)]GlcNAc(b1-2)Man(a1-3)[Fuc(a1-2)Gal(b1-4)[Fuc(a1-3)]GlcNAc(b1-2)Man(a1-6)]Man(b1-4)GlcNAc(b1-4)[Fuc(a1-6)]GlcNAc
# Outline: as §1
# [3] = biological target: Fuc(a1-2)Gal(b1-4)[Fuc(a1-3)]GlcNAc(b1-2)[Fuc(a1-2)Gal(b1-4)[Fuc(a1-3)]GlcNAc(b1-4)]Man(a1-3)[Fuc(a1-2)Gal(b1-4)[Fuc(a1-3)]GlcNAc(b1-2)Man(a1-6)]Man(b1-4)GlcNAc(b1-4)GlcNAc
# Outline: as §1
# [4] = biological target: Fuc(a1-2)Gal(b1-4)[Fuc(a1-3)]GlcNAc(b1-3)Gal(b1-4)[Fuc(a1-3)]GlcNAc
# Outline: as §1
# [5] = biological target: Fuc(a1-2)Gal(b1-4)[Fuc(a1-3)]GlcNAc(b1-3)Gal(b1-4)[Fuc(a1-3)]GlcNAc(b1-3)Gal(b1-4)[Fuc(a1-3)]GlcNAc
# Outline: as §1
# [6] = biological target: Fuc(a1-2)Gal(b1-4)[Fuc(a1-3)]GlcNAc(b1-3)GalNAc
# Outline: as §1
# [7] = biological target: Fuc(a1-2)Gal(b1-4)[Fuc(a1-3)]GlcNAc(b1-3)[Neu5Ac(a2-6)Gal(b1-4)GlcNAc(b1-6)]Gal(b1-4)Glc
# Outline: as §1
# [8] = biological target: Fuc(a1-2)Gal3S(b1-4)GlcNAc
# Outline: as §1
# [9] = biological target: Fuc(a1-2)Gal6S(b1-3)GlcNAc
# Outline: as §1
# [10] = biological target: Fuc(a1-2)Gal6S(b1-3)GlcNAc6S
# Outline: as §1
# Fuc(a1-2)Gal6S(b1-4)Glc = biological target: Fuc(a1-2)Gal6S(b1-4)Glc
# Outline: as §1
# [11] = biological target: Fuc(a1-2)Gal6S(b1-4)Glc6S
# Outline: as §1
# Fuc(a1-2)[Gal(a1-3)]Gal = biological target: Fuc(a1-2)[Gal(a1-3)]Gal
# Outline: as §1
# [12] = biological target: Fuc(a1-2)[Gal(a1-3)]Gal(b1-3)GalNAc
# Outline: as §1
# [13] = biological target: Fuc(a1-2)[Gal(a1-3)]Gal(b1-3)GalNAc(b1-3)Gal(a1-4)Gal(b1-4)Glc
# Outline: as §1
# [14] = biological target: Fuc(a1-2)[Gal(a1-3)]Gal(b1-3)GlcNAc
# Outline: as §1
# [15] = biological target: Fuc(a1-2)[Gal(a1-3)]Gal(b1-3)GlcNAc(b1-2)Man(a1-3)[Fuc(a1-2)[Gal(a1-3)]Gal(b1-3)GlcNAc(b1-2)Man(a1-6)]Man(b1-4)GlcNAc(b1-4)GlcNAc
# Outline: as §1
# [16] = biological target: Fuc(a1-2)[Gal(a1-3)]Gal(b1-3)GlcNAc(b1-2)Man(a1-3)[Fuc(a1-2)[Gal(a1-3)]Gal(b1-3)GlcNAc(b1-2)Man(a1-6)]Man(b1-4)GlcNAc(b1-4)[Fuc(a1-6)]GlcNAc
# Outline: as §1
# [17] = biological target: Fuc(a1-2)[Gal(a1-3)]Gal(b1-3)GlcNAc(b1-3)GalNAc
# Outline: as §1
# [18] = biological target: Fuc(a1-2)[Gal(a1-3)]Gal(b1-3)GlcNAc(b1-6)GalNAc
# Outline: as §1
# [19] = biological target: Fuc(a1-2)[Gal(a1-3)]Gal(b1-4)Glc
# Outline: as §1
# [20] = biological target: Fuc(a1-2)[Gal(a1-3)]Gal(b1-4)GlcNAc
# Outline: as §1
# [21] = biological target: Fuc(a1-2)[Gal(a1-3)]Gal(b1-4)GlcNAc(b1-2)Man
# Outline: as §1
# [22] = biological target: Fuc(a1-2)[Gal(a1-3)]Gal(b1-4)GlcNAc(b1-2)Man(a1-3)[Fuc(a1-2)[Gal(a1-3)]Gal(b1-4)GlcNAc(b1-2)Man(a1-6)]Man(b1-4)GlcNAc(b1-4)GlcNAc
# Outline: as §1
# [23] = biological target: Fuc(a1-2)[Gal(a1-3)]Gal(b1-4)GlcNAc(b1-2)Man(a1-3)[Fuc(a1-2)[Gal(a1-3)]Gal(b1-4)GlcNAc(b1-2)Man(a1-6)]Man(b1-4)GlcNAc(b1-4)[Fuc(a1-6)]GlcNAc
# Outline: as §1
# [24] = biological target: Fuc(a1-2)[Gal(a1-3)]Gal(b1-4)GlcNAc(b1-3)GalNAc
# Outline: as §1
# [25] = biological target: Fuc(a1-2)[Gal(a1-3)]Gal(b1-4)GlcNAc(b1-3)[Fuc(a1-2)[Gal(a1-3)]Gal(b1-4)GlcNAc(b1-6)]GalNAc
# Outline: as §1
# [26] = biological target: Fuc(a1-2)[Gal(a1-3)]Gal(b1-4)GlcNAc(b1-6)GalNAc
# Outline: as §1
# [27] = biological target: Fuc(a1-2)[Gal(a1-3)]Gal(b1-4)[Fuc(a1-3)]Glc
# Outline: as §1
# [28] = biological target: Fuc(a1-2)[Gal(a1-3)]Gal(b1-4)[Fuc(a1-3)]GlcNAc
# Outline: as §1
# [29] = biological target: Fuc(a1-2)[Gal(a1-3)]Gal(b1-4)[Fuc(a1-3)]GlcNAc(b1-3)GalNAc
# Outline: as §1
# [30] = biological target: Fuc(a1-2)[Gal(a1-4)]Gal(b1-4)GlcNAc
# Outline: as §1
# [31] = biological target: Fuc(a1-2)[GalNAc(a1-3)]Gal
# Outline: as §1
# [32] = biological target: Fuc(a1-2)[GalNAc(a1-3)]Gal(b1-3)GalNAc(a1-3)[Fuc(a1-2)]Gal(b1-4)GlcNAc
# Outline: as §1
# [33] = biological target: Fuc(a1-2)[GalNAc(a1-3)]Gal(b1-3)GalNAc(b1-3)Gal(a1-4)Gal(b1-4)Glc
# Outline: as §1
# [34] = biological target: Fuc(a1-2)[GalNAc(a1-3)]Gal(b1-3)GlcNAc
# Outline: as §1
# [35] = biological target: Fuc(a1-2)[GalNAc(a1-3)]Gal(b1-3)GlcNAc(b1-2)Man(a1-3)[Fuc(a1-2)[GalNAc(a1-3)]Gal(b1-3)GlcNAc(b1-2)Man(a1-6)]Man(b1-4)GlcNAc(b1-4)GlcNAc
# Outline: as §1
# [36] = biological target: Fuc(a1-2)[GalNAc(a1-3)]Gal(b1-3)GlcNAc(b1-2)Man(a1-3)[Fuc(a1-2)[GalNAc(a1-3)]Gal(b1-3)GlcNAc(b1-2)Man(a1-6)]Man(b1-4)GlcNAc(b1-4)[Fuc(a1-6)]GlcNAc
# Outline: as §1
binder,measurement,setting,value
B1,glycan array binding signal (z-score),[1],-0.153
same,glycan array binding signal (z-score),[2],-0.031
same,glycan array binding signal (z-score),[3],0.078
same,glycan array binding signal (z-score),[4],-0.021
same,glycan array binding signal (z-score),[5],-0.111
same,glycan array binding signal (z-score),[6],0.189
same,glycan array binding signal (z-score),[7],-0.168
same,glycan array binding signal (z-score),[8],-0.16
same,glycan array binding signal (z-score),[9],-0.102
same,glycan array binding signal (z-score),[10],0.062
same,glycan array binding signal (z-score),Fuc(a1-2)Gal6S(b1-4)Glc,0.027
same,glycan array binding signal (z-score),[11],-0.091
same,glycan array binding signal (z-score),Fuc(a1-2)[Gal(a1-3)]Gal,-0.014
same,glycan array binding signal (z-score),[12],-0.084
same,glycan array binding signal (z-score),[13],-0.103
same,glycan array binding signal (z-score),[14],-0.105
same,glycan array binding signal (z-score),[15],-0.102
same,glycan array binding signal (z-score),[16],0.063
same,glycan array binding signal (z-score),[17],-0.076
same,glycan array binding signal (z-score),[18],-0.005
same,glycan array binding signal (z-score),[19],-0.24
same,glycan array binding signal (z-score),[20],-0.021
same,glycan array binding signal (z-score),[21],-0.162
same,glycan array binding signal (z-score),[22],0.063
same,glycan array binding signal (z-score),[23],-0.073
same,glycan array binding signal (z-score),[24],-0.248
same,glycan array binding signal (z-score),[25],0.285
same,glycan array binding signal (z-score),[26],-0.124
same,glycan array binding signal (z-score),[27],-0.196
same,glycan array binding signal (z-score),[28],-0.109
same,glycan array binding signal (z-score),[29],-0.087
same,glycan array binding signal (z-score),[30],-0.153
same,glycan array binding signal (z-score),[31],-0.081
same,glycan array binding signal (z-score),[32],-0.212
same,glycan array binding signal (z-score),[33],-0.201
same,glycan array binding signal (z-score),[34],-0.168
same,glycan array binding signal (z-score),[35],-0.051
same,glycan array binding signal (z-score),[36],-0.18
